The other results are listed elsewhere or left out. Sequences were assembled here from the parent chain. Inactive controls read about 0.05.
B1: TEV protease; numbered along this chain (parent)
chain: MGESLFKGPRDYNPISSSICHLTNESDGHTTSLYGIGFGPFIITNKHLFRRNNGTLVVQSLHGVFKVKDTTTLQQHLVDGRDMIIIRMPKDFPPFPQKLKFREPQREERICLVTTNFQTKSMSSMVSDTSCTFPSGDGIFWKHWIQTKDGQCGSPLVSTRDGFIVGIHSASNFTNTNNYFTSVPKNFMELLTNQEAQQWVSGWRLNADSVLWGGHKVFMVKPEEPFQPVKEATQL

Variants of: B1
Test: raw area under fraction-flipped curve 0-4 h after induction (AUC4h, not background-subtracted), DNA-recorder readout of cleavage of the substrate (dimensionless); higher = more cleavage of the substrate by the protease variant
Details: temperature: 34 °C; time window: 0-4 h after rhamnose induction
Experimental: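 In vivo DNA recorder in E. coli TOP10(DE3) ΔrhaA at 34 °C. Each TEVp single-site mutant (parent TEVp 0) is paired with a single-site variant of the 7-mer TEVs (canonical ENLYFQ|S). The substrate sits between flexible linkers in a Bxb1-sfGFP-TEVs-SsrA fusion, so cleavage stabilises Bxb1 and speeds flipping of a recombination array, read by NGS. The value is the raw area under the fraction-flipped curve over 0-4 h after rhamnose induction (AUC4h), with ≥20 reads per time point. It is not background-subtracted; inactive controls average about 0.047.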
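Further: Bxb1 expression induced with 0.2% (w/v) L-rhamnose at OD600 near 0.5, cultures sampled hourly, flipped fraction per protease–substrate barcode pair counted by paired-end Illumina sequencing.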

Row | Variant | area with substrate ENLYFAS | area with substrate ENLYFDS | area with substrate ENLYFFS | area with substrate ENLYFHS | area with substrate ENLYFIS | area with substrate ENLYFKS | area with substrate ENLYFLS | area with substrate ENLYFMS | area with substrate ENLYFPS | area with substrate ENLYFTS | area with substrate ENLYFWS | area with substrate ENLYFYS | area with substrate ENLYFCS | area with substrate ENLYFES | area with substrate ENLYFNS | area with substrate ENLYFRS | area with substrate ENLYFSS | area with substrate ENLYFVS | area with substrate ENLYFGS
1 | MGESLFKGPRDYNPISSSICHLTNESDGHTTSLYGIGFGPFIITNKHLFRRNNGTLVVQSLHGVFKVKDTTTLQQHLVDGRDMIIIRMPKFFPPFPQKLKFREPQREERICLVTTNFQTKSMSSMVSDTSCTFPSGDGIFWKHWIQTKDGQCGSPLVSTRDGFIVGIHSASNFTNTNNYFTSVPKNFMELLTNQEAQQWVSGWRLNADSVLWGGHKVFMVKPEEPFQPVKEATQL [D91F] | 0 | 0.0506 | 0.0641 | 0.0616 | 0.0548 | 0.0668 | 0.0503 | 0.0706 | 0.064 | 0.0644 | 0.0612 | 0.0545 | – | – | – | – | – | – | –
2 | MGESLFKGPRDYNPISSSICHLTNESDGHTTSLYGIGFGPFIITNKHLFRRNNGTLVVQSLHGVFKVKDTTTLQQHLVDGRDMIIWRMPKDFPPFPQKLKFREPQREERICLVTTNFQTKSMSSMVSDTSCTFPSGDGIFWKHWIQTKDGQCGSPLVSTRDGFIVGIHSASNFTNTNNYFTSVPKNFMELLTNQEAQQWVSGWRLNADSVLWGGHKVFMVKPEEPFQPVKEATQL [I86W] | 0.0513 | 0.063 | 0.0678 | 0.0526 | 0.0485 | – | 0.0743 | 0.0446 | 0.0547 | 0.0625 | 0.0598 | 0.0323 | 0.0396 | 0.0555 | 0.0548 | – | – | – | –
3 | MGESLFKGPRDYNPISSSICHLTNESDGHTTSLYGIGFGPFIITNKHLFRRNNGTLVVQSLHGVFKVKDTTTLQQHLVDGRDMIIDRMPKDFPPFPQKLKFREPQREERICLVTTNFQTKSMSSMVSDTSCTFPSGDGIFWKHWIQTKDGQCGSPLVSTRDGFIVGIHSASNFTNTNNYFTSVPKNFMELLTNQEAQQWVSGWRLNADSVLWGGHKVFMVKPEEPFQPVKEATQL [I86D] | 0.0454 | – | 0.0383 | – | 0.0331 | 0.043 | – | 0.0399 | – | 0.0278 | 0.0559 | – | – | – | – | 0.0224 | – | – | –
4 | MGESLFKGPRDYNPISSSICHLTNESDGHTTSLYGIGFGPFIITNKHLFRRNNGTLVVQSLHGVFKVKDTTTLQQHLVDGRDMIIIRMPKDYPPFPQKLKFREPQREERICLVTTNFQTKSMSSMVSDTSCTFPSGDGIFWKHWIQTKDGQCGSPLVSTRDGFIVGIHSASNFTNTNNYFTSVPKNFMELLTNQEAQQWVSGWRLNADSVLWGGHKVFMVKPEEPFQPVKEATQL [F92Y] | 0.0654 | – | 0.0571 | 0.0428 | 0.0481 | 0.0612 | 0.054 | 0.0616 | 0.0596 | 0.0651 | – | – | 0.056 | 0.0667 | 0.0665 | 0.0636 | 0.0325 | 0.0508 | –
5 | MGESLFKGPRDYNPISSSICHLTNESDGHTTSLYGIGFGPFIITNKHLFRRNNGTLVVQSLHGVFKVKDTTTLQQHLVDGRDMIIIRMPKDEPPFPQKLKFREPQREERICLVTTNFQTKSMSSMVSDTSCTFPSGDGIFWKHWIQTKDGQCGSPLVSTRDGFIVGIHSASNFTNTNNYFTSVPKNFMELLTNQEAQQWVSGWRLNADSVLWGGHKVFMVKPEEPFQPVKEATQL [F92E] | 0.0685 | 0.0183 | – | 0.0559 | 0.0535 | – | 0.0584 | 0.0531 | 0.0589 | 0.0496 | 0.062 | 0.0487 | 0.0498 | – | 0.0595 | – | 0.0517 | – | –
6 | MGESLFKGPRDYNPISSSICHLTNESDGHTTSLYGIGFGPFIITNKHLFRRNNGTLVVQSLHGVFKVKDTTTTQQHLVDGRDMIIIRMPKDFPPFPQKLKFREPQREERICLVTTNFQTKSMSSMVSDTSCTFPSGDGIFWKHWIQTKDGQCGSPLVSTRDGFIVGIHSASNFTNTNNYFTSVPKNFMELLTNQEAQQWVSGWRLNADSVLWGGHKVFMVKPEEPFQPVKEATQL [L73T] | 0.0505 | – | 0.0465 | 0.0547 | 0.0492 | 0.0453 | 0.06 | 0.0567 | 0.056 | 0.0588 | – | 0.05 | 0.0535 | – | 0.0404 | 0.0178 | – | 0.0514 | –
7 | MGESLFKGPRDYNPISSSICHLTNESDGHTTSLYGIGFGPFIITNKHLFRRNNGTLVVQSLHGVFKVKDTTTWQQHLVDGRDMIIIRMPKDFPPFPQKLKFREPQREERICLVTTNFQTKSMSSMVSDTSCTFPSGDGIFWKHWIQTKDGQCGSPLVSTRDGFIVGIHSASNFTNTNNYFTSVPKNFMELLTNQEAQQWVSGWRLNADSVLWGGHKVFMVKPEEPFQPVKEATQL [L73W] | 0.0593 | – | – | 0.0596 | 0.0672 | – | – | – | 0.0681 | 0.0683 | – | 0.0575 | – | – | 0.0761 | – | – | 0.0463 | –
8 | MGESLFKGPRDYNPISSSICHLTNESDGHTTSLYGIGFGPFIITNKHLFRRNNGTLVVQSLHGVFKVKDTTTLRQHLVDGRDMIIIRMPKDFPPFPQKLKFREPQREERICLVTTNFQTKSMSSMVSDTSCTFPSGDGIFWKHWIQTKDGQCGSPLVSTRDGFIVGIHSASNFTNTNNYFTSVPKNFMELLTNQEAQQWVSGWRLNADSVLWGGHKVFMVKPEEPFQPVKEATQL [Q74R] | 0.0594 | – | 0.0613 | – | 0.0637 | – | 0.0618 | 0.0621 | 0.0437 | 0.0491 | – | 0.0569 | – | – | 0.0635 | 0.0584 | 0.0569 | – | –
9 | MGESLFKGPRDYNPISSSICHLTNESDGHTTSLYGIGFGPFIITNKHLFRRNNGTLVVQSLHGVFKVKDTTTLQQHLVDGRDMIIIRMHKDFPPFPQKLKFREPQREERICLVTTNFQTKSMSSMVSDTSCTFPSGDGIFWKHWIQTKDGQCGSPLVSTRDGFIVGIHSASNFTNTNNYFTSVPKNFMELLTNQEAQQWVSGWRLNADSVLWGGHKVFMVKPEEPFQPVKEATQL [P89H] | 0.0617 | – | 0.059 | – | – | 0.0531 | – | 0.0611 | 0.0524 | 0.0614 | – | 0.0449 | – | – | – | – | – | 0.0691 | –
10 | MGESLFKGPRDYNPISSSICHLTNESDGHTTSLYGIGFGPFIITNKHLFRRNNGTLVVQSLHGVFKVKDTTTLQQHLVDGRGMIIIRMPKDFPPFPQKLKFREPQREERICLVTTNFQTKSMSSMVSDTSCTFPSGDGIFWKHWIQTKDGQCGSPLVSTRDGFIVGIHSASNFTNTNNYFTSVPKNFMELLTNQEAQQWVSGWRLNADSVLWGGHKVFMVKPEEPFQPVKEATQL [D82G] | 0.0338 | – | 0.0614 | – | 0.0553 | 0.0959 | 0.0619 | 0.0607 | 0.0499 | 0.0602 | 0.0453 | – | – | 0.0682 | 0.0592 | 0.0607 | 0.0519 | – | 0.0283

From the supplement of paper PMC12217912
